Reference: PubChem BioAssay AID463173 (ICCB-Longwood Screening Facility, Harvard Medical School, 2010)
Among all 52,000 compounds or so, about 1,700 (3.3%) were called active. Rule as the data show it: active = survival mostly below about 52% (no sharp cut-off); inactive = mostly above about 56%. Some of the results follow.

tested on: Wild type; assay: S. aureus survival, RN4220 and DeltatarO strains – OD600, teichoic acid synthesis inhibitors, primary screen (AID 463173); settings: S. aureus RN4220 wild type/DeltatarO growth, OD600, 18 h, stronger effect = lower value, screened at 18.75 µg/mL (by protocol)

Compound | survival
CC(C)(C)N(Cc1ccccc1)C(=O)CSc1nnc(CNc2ccc(F)cc2)o1 | inactive: 114%
NS(=O)(=O)c1ccc2nc(NC(=O)COc3ccccc3)sc2c1 | inactive: 88%
COCCNC(=O)CSc1nc(-c2ccccc2C)nc2c1c(=O)n(C)c(=O)n2C | inactive: 77%
COc1ccc(CCC(=O)NCCc2csc(-c3ccc(Cl)cc3)n2)cc1 | inactive: 126%
Cc1ccc2cccc(NC(=O)c3ccc(-c4cccc(Cl)c4)o3)c2n1 | inactive: 66%
Cc1ccc(NC(=O)Cn2c(=O)oc3cc(S(=O)(=O)N4CCCCCC4)ccc32)cc1Cl | inactive: 92%
CC(C(=O)NC1CC1)N1CCC(N2CCCCC2)CC1 (stereo not given) | inactive: 96%
CC(C)C(NS(=O)(=O)c1ccc2c(c1)oc(=O)n2C)C(=O)NCCc1ccc(Cl)cc1 (stereo not given) | inactive: 90%
CCOc1ccc(Nc2c(S(=O)(=O)c3ccccc3)cnc3ccccc23)cc1 | inactive: 38%
CN(Cc1ccco1)S(=O)(=O)c1nnc(NC(=O)c2cccc(Cl)c2)s1 | inactive: 18%
Cc1ccc(NC(=O)c2nc(S(C)(=O)=O)ncc2N(Cc2ccco2)Cc2ccco2)cc1C | inactive: 92%
CCCN(CCC)C(=O)c1cc2c(=O)n3cccc(C)c3nc2n1C | inactive: 78%
O=C1c2ccccc2S(=O)(=O)c2cc(-c3nn[nH]n3)ccc21 | inactive: 99%
Cc1ccc(NC(=O)c2c(C)oc3ccc(O)c(CN4CCCCC4)c23)c(C)c1 | inactive: 92%
Cc1ccc2nc(C3CCCN(C(=O)NCc4ccccc4)C3)[nH]c2c1 (stereo not given) | inactive: 113%
C(=N\c1nncs1)/Nc1nncs1 | inactive: 104%
Cc1ccc(-c2nnc(Nc3ccc(S(N)(=O)=O)cc3)c3ccccc23)cc1S(=O)(=O)N1CCCCC1 | inactive: 109%
CC(=O)NC1N=C(C)N(c2ccccc2)C1=O (stereo not given) | inactive: 101%
CCC(=O)N1CCc2cc(Br)cc(S(=O)(=O)CCC(=O)N(CC)Cc3ccccc3)c21 | inactive: 66%
CN1C(=O)/C(=C/c2cccs2)SC1=S | inactive: 110%
Cc1ccc(NC(=O)CN2C(=O)C3(SCC(=O)N3c3ccc(F)c(F)c3)c3ccccc32)c(C)c1 (stereo not given) | inactive: 69%
CC1=NN(C(=O)c2ccccc2)C(C)(O)C1(C)C (stereo not given) | inactive: 103%
CCOCCCNC(=O)C(c1ccc(Cl)cc1)N(Cc1cccs1)C(=O)c1ccc(NC(C)=O)cc1 (stereo not given) | inactive: 99%

Compound | survival
CC(C)(Oc1ccc(Cl)cc1)C(=O)Nc1nc2ccc(S(C)(=O)=O)cc2s1 | inactive: 69%
CN(C)c1ccc(C(CNC(=O)c2c(F)cccc2Cl)N2CCOCC2)cc1 (stereo not given) | inactive: 19%
CN1/C(=N\O)c2cccc3cccc1c23 | inactive: 128%
COc1ccc(Cl)cc1NC(=O)NCC1CCN(Cc2ccccc2F)CC1 | inactive: 76%
CC(=O)N1CCc2cc(CNS(=O)(=O)c3ccc(Cl)s3)ccc21 | inactive: 65%
COc1ccc(-n2c(=O)c3c4c(sc3n3c(SCCC(C)C)nnc23)COC(C(C)C)C4)cc1 (stereo not given) | inactive: 68%
COc1cc(OC)cc(C(=O)Nc2ccc3oc(-c4cccc5c(Br)cccc45)nc3c2)c1 | inactive: 78%
CN1C(=O)C2(SCC(=O)N2c2ccc(F)cc2)c2ccccc21 (stereo not given) | inactive: 92%
CCOc1ccc(OCC)c(NS(=O)(=O)c2cc(-c3onc(C)c3C)ccc2OC)c1 | inactive: 51%
CCN1CCN(CCCNC(=O)c2ccc3nc(Cc4ccccc4)oc3c2)CC1 | inactive: 79%
CCOc1ccc(N2C(=O)CC(N(CCc3ccccc3)C(C)=O)C2=O)cc1 (stereo not given) | inactive: 95%
O=C(CCSc1nc(-c2ccco2)cc(C(F)(F)F)n1)N1CCCC1 | inactive: 109%
O=C(CO)N/N=C\c1c(F)cccc1Cl | inactive: 124%
COc1ccc(N2CCN(C(=O)c3cc(S(=O)(=O)N4CCC(C)CC4)cn3C)CC2)cc1 | inactive: 63%
Cc1cccc(N2CCN(c3nc4ccc(C)cc4n4cnnc34)CC2C)c1 (stereo not given) | inactive: 81%
COc1ccc(-n2ccnc(NCc3ccc(C)cc3)c2=O)cc1OC | inactive: 87%
O=C(NCC(c1ccc2c(c1)OCO2)N1CCOCC1)c1c(F)cccc1F (stereo not given) | inactive: 69%
CCN(C(=O)C1CCN(c2ncnc3c2nc2n3CCCCC2)CC1)c1cccc(Cl)c1 | inactive: 63%
Cc1cccc(NC(=O)CCNS(=O)(=O)c2cccc3nsnc23)c1C | inactive: 67%
COc1ccc(N(CC(=O)N2CCN(c3ccccc3F)CC2)S(=O)(=O)c2c(C)n[nH]c2C)cc1 | inactive: 124%
CCOc1ccccc1N(CC)C(=O)c1noc2c1COc1ccc(C)cc1-2 | inactive: 86%
CC1(C)Cc2ccccc2/C(=C/C(=O)N2CCCCCC2)N1 | inactive: 117%
CCn1cc(C(=O)NCCc2ccc(Cl)cc2)c(=O)c2cc(S(=O)(=O)N3CCC(C)CC3)ccc21 | inactive: 97%

Compound | survival
O=C(NC1CCCCC1)c1ccc2c(c1)N(Cc1ccc(Cl)cc1)C(=O)c1ccccc1S2=O (stereo not given) | inactive: 82%
O=C(c1ccc(F)cc1)n1nc(-c2ccccc2)nc1NCc1ccco1 | active: 9%
Cc1ccc(C)c(Cn2c(=O)cc(C)c3c(C)nn(C)c32)c1 | inactive: 63%
COc1ccc(NC(=O)/C=C\C(=O)N(c2ccc(C(C)C)cc2)C(C(=O)NCc2ccco2)c2ccc(F)cc2)cc1 (stereo not given) | inactive: 59%
O=C(c1ccccc1)N(Cc1ccco1)Cc1cccs1 | inactive: 82%
Cc1cccc(C(=O)Nc2ccc(C(=O)OCc3cc(=O)n4nc(CC(C)C)sc4n3)cc2)c1 | inactive: 71%
CCn1c(C)c(C)c2cc(C(=O)NCc3cccc(C)c3)ccc21 | inactive: 74%
COc1ccc(OCC(=O)N2CCN(C(=O)c3cccc(OC)c3)CC2)cc1 | inactive: 88%
CCc1ccccc1NC(=O)CCS(=O)(=O)c1cccc2nonc12 | inactive: 78%
COc1cccc(CNC(=O)CCc2c(C)c3cc4c(C)coc4c(C)c3oc2=O)c1 | inactive: 75%
CC1CCCN(S(=O)(=O)c2ccc(NC(=O)CSc3nc4ccccc4o3)cc2)C1 (stereo not given) | inactive: 113%
Cc1ccc(-n2ncc3c(N4CCN(C)CC4)ncnc32)cc1C | inactive: 71%
COc1ccccc1NC(=O)c1sc2nc(C)c(C(=O)Nc3ccc(C)cc3C)c(-c3ccc(C)o3)c2c1N | inactive: 74%
CC(=O)Nc1ccccc1N1CCCCC1 | inactive: 90%
O=C(CN(C(=O)Cn1nnc(-c2cccs2)n1)C1CCCC1)NCc1ccccc1 | inactive: 112%
CCC(C)NC(=O)c1nc2c(nnn2Cc2ccccc2Cl)c(=O)[nH]1 (stereo not given) | inactive: 122%
Cc1cccc(NC(=O)Cc2csc(COc3cccc(C)c3)n2)c1 | inactive: 89%
Cc1cc(C)cc(NC(=O)CCc2c(C)nc3c4cccnc4nn3c2C)c1 | inactive: 93%
CCOC(=O)Cn1c(=O)n(C2CCCCC2)c2nc(-c3cccc(OC)c3)nc(C(N)=O)c21 | inactive: 81%
Cc1cccc(C(=O)NCC(=O)OCc2cc(=O)n3nc(C4CC4)sc3n2)c1 | inactive: 97%
Cc1c2cnn(-c3ccccc3)c(=O)c2c(C)n1CC(=O)NCc1ccccc1 | inactive: 85%
Cc1cccc(-n2c(SCC(=O)c3ccccc3)nnc2-c2ccc(Br)cc2)c1 | inactive: 74%
Cc1ccc(Cl)cc1NS(=O)(=O)c1cc2c3c(c1)CC(=O)N3CCC2 | inactive: 79%

Compound | survival
CCCNC(=O)N1CCN(S(=O)(=O)c2ccc3c(ccn3C)c2)CC1 | inactive: 77%
COc1cc2c(c(OC)c1)C(c1cc(OC)c(OC)c(OC)c1)CC(=O)N2 (stereo not given) | inactive: 77%
CCc1nn2c(=O)c(S(=O)(=O)Nc3cccc(F)c3)c(C)nc2s1 | inactive: 84%
CCOc1ccc(S(=O)(=O)Nc2ccc(-c3ccc(OC)nn3)cc2)cc1 | inactive: 105%
CCC(Sc1nc2nccnc2c(=O)n1Cc1ccc(C)cc1)C(=O)NC1CCCCC1 (stereo not given) | inactive: 65%
CC1(C)CC2CC(C)(CN2C(=O)c2cccs2)C1 (stereo not given) | inactive: 115%
COc1ccccc1N1CCN(C(=O)c2cc3ccc4ccc(C)[nH]c4c3n2)CC1 | inactive: 71%
CCOc1ccc(-c2cc3nc(C4CCN(C(=O)OC(C)(C)C)CC4)c(C(=O)Nc4ccc(C)cc4C)cn3n2)cc1 | inactive: 78%
O=C(CC1SC(=NC2CCCCC2)NC1=O)Nc1ccccc1 (stereo not given) | inactive: 96%
CCOC(=O)C1CCCN(S(=O)(=O)c2csc(C(N)=O)c2)C1 (stereo not given) | inactive: 87%
Cc1ccc(CNC(=O)Cn2c(=O)n(-c3cccc(Cl)c3)c(=O)c3sc4ccccc4c32)cc1 | inactive: 81%
O=C(c1ccc(CS(=O)c2ccccc2Cl)o1)N1CCN(c2cccc(Cl)c2)CC1 (stereo not given) | inactive: 44%
CC(CNC(=O)CCCn1c(=O)c2cccn2c2cccnc21)c1ccccc1 (stereo not given) | inactive: 96%
Cc1ccccc1Nc1c(-c2ccncc2)nc2ccc(Cl)cn12 | inactive: 128%
COc1cccc(CNC(=O)c2ccc(NC(=O)N3CC(C)Sc4ccccc43)cc2)c1 (stereo not given) | inactive: 80%
CC(C)(C)OC(=O)N1CCC(c2c(C(=O)N3CCN(C(=O)c4ccco4)CC3)cnn2-c2ccccc2)CC1 | inactive: 80%
Cc1cccc(CCNC(=O)C2CCCN(S(=O)(=O)c3ccc4c(c3)oc(=O)n4C)C2)c1 (stereo not given) | inactive: 93%
CCOc1cccc2sc(N(CCN(CC)CC)C(=O)c3ccco3)nc12 | inactive: 133%
COc1ccc(CCNC(=O)c2ccc(CNS(=O)(=O)c3ccccc3)cc2)cc1OC | inactive: 126%
COc1cc(NC(=O)c2ccc(NC(=O)N3CCSc4ncccc43)cc2)cc(OC)c1 | inactive: 71%
Cc1ccc2nc(Cl)c3cc(C(=O)NC4CCCCCC4)sc3c2c1 | inactive: 119%
